Measured values taken from the supplement of paper PMC8728848.
The list shows a part of the results.

Experiments:
Experiment in all cases: glycan array binding signal (z-score within array); higher = stronger binding
Conditions in all cases: glycan notation: IUPAC condensed, linker removed
[1] = target: Neu5Ac(a2-3)Gal(b1-4)GlcNAc(b1-3)[Neu5Ac(a2-3)Gal(b1-4)GlcNAc(b1-6)]GalNAc
How it was run: (§1)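 Glycan array data came from 3228 arrays in the Consortium for Functional Glycomics database, and only arrays with an available protein sequence were kept. Glycan names were put into IUPAC-condensed notation, and columns mapping to the same glycan were averaged. The binding signal is a within-array Z-score, averaged across arrays of one protein sequence run at different concentrations or buffers and across linkers. A negative Z-score can be read as non-binding.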

[2] = target: Neu5Ac(a2-3)Gal(b1-4)GlcNAc(b1-6)GalNAc
How it was run: as §1

[3] = target: Neu5Ac(a2-3)Gal(b1-4)GlcNAc(b1-6)[Gal(b1-3)]GalNAc
How it was run: as §1

[4] = target: Neu5Ac(a2-3)Gal(b1-4)GlcNAc(b1-6)[Neu5Ac(a2-3)Gal(b1-3)]GalNAc
How it was run: as §1

[5] = target: Neu5Ac(a2-3)Gal(b1-4)GlcNAc6S
How it was run: as §1

[6] = target: Neu5Ac(a2-3)Gal(b1-4)[Fuc(a1-3)]GlcNAc
How it was run: as §1

[7] = target: Neu5Ac(a2-3)Gal(b1-4)[Fuc(a1-3)]GlcNAc(b1-2)Man
How it was run: as §1

[8] = target: Neu5Ac(a2-3)Gal(b1-4)[Fuc(a1-3)]GlcNAc(b1-3)Gal
How it was run: as §1

[9] = target: Neu5Ac(a2-3)Gal(b1-4)[Fuc(a1-3)]GlcNAc(b1-3)Gal(b1-4)GlcNAc
How it was run: as §1

[10] = target: Neu5Ac(a2-3)Gal(b1-4)[Fuc(a1-3)]GlcNAc(b1-3)Gal(b1-4)[Fuc(a1-3)]GlcNAc(b1-3)Gal(b1-4)[Fuc(a1-3)]GlcNAc
How it was run: as §1

[11] = target: Neu5Ac(a2-3)Gal(b1-4)[Fuc(a1-3)]GlcNAc(b1-3)GalNAc
How it was run: as §1

[12] = target: Neu5Ac(a2-3)Gal(b1-4)[Fuc(a1-3)]GlcNAc(b1-6)[Gal(b1-3)]GalNAc
How it was run: as §1

[13] = target: Neu5Ac(a2-3)Gal(b1-4)[Fuc(a1-3)]GlcNAc(b1-6)[Neu5Ac(a2-3)Gal(b1-3)]GalNAc
How it was run: as §1

[14] = target: Neu5Ac(a2-3)Gal(b1-4)[Fuc(a1-3)]GlcNAc6S
How it was run: as §1

[15] = target: Neu5Ac(a2-3)Gal6S(b1-4)GlcNAc
How it was run: as §1

[16] = target: Neu5Ac(a2-3)Gal6S(b1-4)[Fuc(a1-3)]GlcNAc
How it was run: as §1

Neu5Ac(a2-3)GalNAc = target: Neu5Ac(a2-3)GalNAc
How it was run: as §1

[17] = target: Neu5Ac(a2-3)GalNAc(b1-4)GlcNAc
How it was run: as §1

[18] = target: Neu5Ac(a2-3)[GalNAc(b1-4)]Gal(b1-4)Glc
How it was run: as §1

[19] = target: Neu5Ac(a2-3)[GalNAc(b1-4)]Gal(b1-4)GlcNAc
How it was run: as §1

[20] = target: Neu5Ac(a2-3)[GalNAc(b1-4)]Gal(b1-4)GlcNAc(b1-3)GalNAc
How it was run: as §1

[21] = target: Neu5Ac(a2-3)[Neu5Ac(a2-6)]GalNAc
How it was run: as §1

Neu5Ac(a2-6)Gal = target: Neu5Ac(a2-6)Gal
How it was run: as §1

[22] = target: Neu5Ac(a2-6)Gal(b1-3)GlcNAc(b1-3)[Gal(b1-4)GlcNAc(b1-6)]Gal(b1-4)Glc
How it was run: as §1

Neu5Ac(a2-6)Gal(b1-4)Glc = target: Neu5Ac(a2-6)Gal(b1-4)Glc
How it was run: as §1

[23] = target: Neu5Ac(a2-6)Gal(b1-4)GlcNAc
How it was run: as §1

[24] = target: Neu5Ac(a2-6)Gal(b1-4)GlcNAc(b1-2)Man
How it was run: as §1

[25] = target: Neu5Ac(a2-6)Gal(b1-4)GlcNAc(b1-2)Man(a1-3)Man(b1-4)GlcNAc(b1-4)GlcNAc
How it was run: as §1

[26] = target: Neu5Ac(a2-6)Gal(b1-4)GlcNAc(b1-2)Man(a1-3)[Gal(b1-4)GlcNAc(b1-2)Man(a1-6)]Man(b1-4)GlcNAc(b1-4)GlcNAc
How it was run: as §1

[27] = target: Neu5Ac(a2-6)Gal(b1-4)GlcNAc(b1-2)Man(a1-3)[GlcNAc(b1-2)Man(a1-6)]Man(b1-4)GlcNAc(b1-4)GlcNAc
How it was run: as §1

[28] = target: Neu5Ac(a2-6)Gal(b1-4)GlcNAc(b1-2)Man(a1-3)[GlcNAc(b1-4)][Neu5Ac(a2-6)Gal(b1-4)GlcNAc(b1-2)Man(a1-6)]Man(b1-4)GlcNAc(b1-4)GlcNAc
How it was run: as §1

B1: Epa6 (Candida glabrata), Q6DTM7_CANGB (protein)
chain: MGSSHHHHHHSSGLVPRGSHMKDDYSSSLSNNNLGWTDPTEFPLGCSPNVTTPKNGLSMELYSYDYLKSGSNPCWDAAYLDPNYPRTGYKSHRLLAKVENVAGNINFYYHAPMGCTSLFDTLPQAYNYRTPLTMTNFTMLLYGYFKPKVTGYHTFTISADDLLFVNFGAGNAFDCCKRESSADDFGNYQAYAVWGSQTAKDDLTVHLDAGLYYPIRIFFNNRDNDGALSLTLKTESDPNPVIDFSDYFYSFDDTKDGCPGLVSYDTS
Q: What does the source list for B1?
A: glycan array binding signal (z-score) [1]: -0.314; glycan array binding signal (z-score) [2]: -0.299; glycan array binding signal (z-score) [3]: 0.321; glycan array binding signal (z-score) [4]: -0.312; glycan array binding signal (z-score) [5]: -0.347; glycan array binding signal (z-score) [6]: -0.32; glycan array binding signal (z-score) [7]: -0.243; glycan array binding signal (z-score) [8]: -0.328; glycan array binding signal (z-score) [9]: -0.172; glycan array binding signal (z-score) [10]: -0.33; glycan array binding signal (z-score) [11]: 0.035; glycan array binding signal (z-score) [12]: 0.011; glycan array binding signal (z-score) [13]: -0.17; glycan array binding signal (z-score) [14]: -0.347; glycan array binding signal (z-score) [15]: -0.333; glycan array binding signal (z-score) [16]: -0.289; glycan array binding signal (z-score) (Neu5Ac(a2-3)GalNAc): -0.337; glycan array binding signal (z-score) [17]: -0.273; glycan array binding signal (z-score) [18]: -0.292; glycan array binding signal (z-score) [19]: -0.3; glycan array binding signal (z-score) [20]: -0.263; glycan array binding signal (z-score) [21]: -0.339; glycan array binding signal (z-score) (Neu5Ac(a2-6)Gal): -0.232; glycan array binding signal (z-score) [22]: -0.278; glycan array binding signal (z-score) (Neu5Ac(a2-6)Gal(b1-4)Glc): -0.313; glycan array binding signal (z-score) [23]: -0.314; glycan array binding signal (z-score) [24]: -0.338; glycan array binding signal (z-score) [25]: -0.325; glycan array binding signal (z-score) [26]: -0.301; glycan array binding signal (z-score) [27]: -0.338; glycan array binding signal (z-score) [28]: -0.314
